From publication PMC4336329 (PLoS ONE, 2015)
The whole screen tested about 310,000 compounds, of which about 2,200 (0.71%) showed an effect of 50% or more. Effects have a minus sign here. The list shows a part of the results.

target: human ether-à-go-go-related gene (hERG) potassium channel (human, UniProt Q12809); assay: primary screen, population patch clamp on CHO cells stably expressing hERG
Sequence (Q12809 whole entry, looked up): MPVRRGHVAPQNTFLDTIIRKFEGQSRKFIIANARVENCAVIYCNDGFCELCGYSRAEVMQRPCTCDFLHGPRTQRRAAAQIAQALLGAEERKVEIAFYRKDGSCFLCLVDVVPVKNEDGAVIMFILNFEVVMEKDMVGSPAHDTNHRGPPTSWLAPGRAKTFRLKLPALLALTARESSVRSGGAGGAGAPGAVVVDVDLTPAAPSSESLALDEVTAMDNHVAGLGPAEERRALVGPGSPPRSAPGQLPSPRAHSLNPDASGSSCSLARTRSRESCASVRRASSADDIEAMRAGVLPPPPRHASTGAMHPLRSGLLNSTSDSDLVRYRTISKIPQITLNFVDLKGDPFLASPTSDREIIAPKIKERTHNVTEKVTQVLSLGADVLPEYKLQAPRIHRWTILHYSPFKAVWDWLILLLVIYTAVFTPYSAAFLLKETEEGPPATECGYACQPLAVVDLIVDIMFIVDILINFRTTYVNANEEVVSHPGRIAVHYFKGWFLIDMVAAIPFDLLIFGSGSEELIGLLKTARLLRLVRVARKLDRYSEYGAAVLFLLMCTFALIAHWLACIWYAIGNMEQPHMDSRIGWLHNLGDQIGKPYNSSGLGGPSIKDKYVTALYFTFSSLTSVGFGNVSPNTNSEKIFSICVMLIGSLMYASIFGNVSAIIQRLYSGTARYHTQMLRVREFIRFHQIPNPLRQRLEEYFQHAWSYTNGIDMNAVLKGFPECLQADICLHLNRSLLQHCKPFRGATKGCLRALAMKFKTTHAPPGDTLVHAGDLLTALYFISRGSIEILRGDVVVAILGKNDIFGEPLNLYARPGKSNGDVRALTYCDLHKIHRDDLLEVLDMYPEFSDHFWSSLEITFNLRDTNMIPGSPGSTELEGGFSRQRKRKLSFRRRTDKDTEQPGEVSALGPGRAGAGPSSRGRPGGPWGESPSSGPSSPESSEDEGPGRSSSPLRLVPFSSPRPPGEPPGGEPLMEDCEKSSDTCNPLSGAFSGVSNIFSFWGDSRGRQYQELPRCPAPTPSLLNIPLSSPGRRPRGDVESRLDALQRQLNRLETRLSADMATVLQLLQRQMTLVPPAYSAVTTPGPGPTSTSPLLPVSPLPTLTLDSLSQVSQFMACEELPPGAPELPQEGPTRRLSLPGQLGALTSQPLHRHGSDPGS

Structure (SMILES) | hERG current change (%, negative = inhibition) at 1uM [%]
Nc1nc(SCC(=O)c2ccc(F)cc2)n[nH]1 | 9.83
COc1cc(CC(=O)OC2CCOC2=O)cc(OC)c1OC (stereo not drawn) | 8.86
S=C(c1ccc(Cl)cc1)N1CCN(Cc2ccccc2)CC1 | 7.65
Cc1ccc(CSc2nnc(-c3ccccn3)n2C)cc1 | 7.53
CN(C)c1ccc(C(C(=O)NCC2CCCO2)N(C(=O)c2snc(C(N)=O)c2N)c2ccc3c(c2)OCO3)cc1 (stereo not drawn) | 16.4
O=C(CN1C(=O)C2CC=CCC2C1=O)NCC(=O)Nc1ccc(F)c(F)c1F (stereo not drawn) | 7.4
FC(F)(F)c1nc2cc3nc4ccccc4[nH]c3cc2n1 | 14.6
Cc1ccc(S(=O)(=O)N2CCN(CC3CC4C=CC3C4)CC2)cc1.O=C(O)C(=O)O (stereo not drawn) | 6.89
CCCNC(=O)C(Cc1ccc(I)cc1)NC(=O)c1ccc(C#N)cc1 (stereo not drawn) | 15.6
C=CSc1sc(Cl)c(N(C)C)c1[N+](=O)[O-] | 14.8
CC1(C)Cc2cccc(OCC(=O)OCC(=O)Nc3cccc(S(N)(=O)=O)c3)c2O1 | 7.6
CC(=O)c1cccc(NC(=O)c2cc(=O)c3ccccc3o2)c1 | 14.2
CC(=O)Nc1ccc(NC(=O)CNC(=O)c2cccc(C)c2)cc1 | 7.03
COc1ccc(C2N(c3ccc(Cl)cc3)C(=O)C3CCCN32)cc1 (stereo not drawn) | 4.51
Cc1nnc(SCc2nnc(-c3ccccc3Br)o2)n1-c1ccccc1 | 5.91
CC(C)(C)NC(=O)CN(C(=O)C(=O)Nc1ccc2c(c1)OCCO2)N1CCOCC1 | -0.319
O=c1c2ccccc2ncn1/N=C/c1ccccc1 | 29.8
Fc1ccc(NC(=S)Nc2nccs2)cc1 | -10.7
CCOc1cc(O)c(-c2[nH]ncc2-c2nc(C)cs2)cc1CC | 10.6

Structure (SMILES) | hERG current change (%, negative = inhibition) at 1uM [%]
COc1cc(C(=O)Nc2cccc(-c3nnc(-c4ccco4)o3)c2)ccc1OC(C)=O | -6.03
CCOc1nc(N=C(N)N)nc2c(C)cccc12 | 6.56
CC(=O)N1c2ccc(S(=O)(=O)NCC3CCC(C(=O)NC4CCCCC4)CC3)cc2CC1C (stereo not drawn) | 11.7
CCn1cc(Cl)c(C(=O)Nc2ccccc2C(N)=O)n1 | 0.414
Cc1nc2ccc(NC(=O)c3ccc([N+](=O)[O-])cc3)cc2s1 | 10.6
COc1ccc(CC(=O)NCc2ccccn2)cc1OC | 14.8
O=C(/C=C/c1cn(-c2ccccc2)nc1-c1cccnc1)c1ccco1 | 12.2
O=C(CN1CCN(S(=O)(=O)c2ccc(Br)cc2)CC1)Nc1ccc2c(c1)OCO2 | -0.34
Cc1ccc(C)c2c(N)c3c(nc12)CCCCC3.O=C(O)c1cncc(Br)c1 | -51.9
CCc1cc(-c2nc(N)ncc2-c2ccc(Br)cc2)c(O)cc1OC | 10.4
CC/C(=N\NC(=O)c1ccccc1Cl)c1ccc(Br)s1 | 5.98
C/C(=N\Nc1ncc(Cl)cc1Cl)c1ccc2c(c1)OCO2 | 2.97
CCn1c(SCC(=O)NCC(=O)Nc2ccc(F)cc2)nnc1-c1ccncc1 | 5.93
CC(C)N(C(=O)NC(=O)NCC1CCCO1)S(C)(=O)=O (stereo not drawn) | 11.8
Cc1ccc(-n2ncc3c(NCc4ccco4)ncnc32)cc1C | 0.882
CN(C(=O)CSc1nnc(-c2ccc(Cl)cc2)n1CC1CCCO1)C1CCS(=O)(=O)C1 (stereo not drawn) | 2.87
CCOc1ccccc1C(=O)N/N=C/c1c[nH]c2ccccc12 | 19
Cc1cc(C(=O)NCc2cc(C)n(C)n2)sc1-c1ccccc1 | -6.43
CCc1nnc(SCC(=O)Nc2ccc(N3CCOCC3)cc2)n1C | 10.2

Structure (SMILES) | hERG current change (%, negative = inhibition) at 1uM [%]
Cn1c(=O)c2c(nc(SCc3cccnc3)n2Cc2ccccc2)n(C)c1=O | 7.43
CN1C(=O)C(O)(C2COC(C)(C)CC2=O)c2cc(Br)ccc21 (stereo not drawn) | -8.82
COc1ccccc1CC(=O)N1CCN(S(=O)(=O)c2ccccc2)CC1 | 12.8
CN(C(=O)Cc1ccc(Cl)c(Cl)c1)C(CN1CCCC1)c1cccc(OCC(=O)O)c1.Cl (stereo not drawn) | 8.26
CCCCSc1nc(NCc2ccco2)c2c3c(sc2n1)COC(C)(C)C3 | 1.11
CCOC(=O)N1CCC(N2CCCC(C(=O)c3cccc(OC(C)C)c3)C2)CC1 (stereo not drawn) | -61.3
CCCCN(C(=O)C1CCC1)c1c(N)n(CCC)c(=O)[nH]c1=O | 11.4
CCOc1ccccc1N(CC(=O)Nc1ccc(OC)cc1)S(=O)(=O)c1ccccc1 | 4.66
Cc1nn(-c2ccccc2)c(N2CCCC2)c1/C=N/Nc1ccc(S(N)(=O)=O)cc1[N+](=O)[O-] | 8.85
CCOc1ccccc1CN1CCN(C2CCSCC2)CC1CCO (stereo not drawn) | -7.19
O=C1CCCCCN1CSc1nc2ccccc2s1 | 4.58
COc1cccc(NC(=O)CC2C(=O)NCCN2C(=S)Nc2ccc(F)cc2)c1 (stereo not drawn) | 14.9
Cc1cccc(C)c1NC(=O)NC1(C(=O)NCC2CCCO2)CCCCC1 (stereo not drawn) | 17.3
CCOC(=O)N1CCN(c2nc(=S)n(-c3ccccc3)c(C)c2C(C)=O)CC1 | 8.83
Cc1nc2cc(N)ccc2n1C1CCCCC1.Cl | 3.97
Cc1cc(C)cc(OCC(=O)OCC(=O)NC2CCCCCC2)c1 | 16.9
CCOC(=O)c1cc(OC(=O)c2ccccc2OC)n(-c2ccccc2)n1 | -0.417
Cc1ccc(S(=O)(=O)NC(C)C(=O)NCc2ccc(Cl)cc2)cc1 (stereo not drawn) | 8.84
CC1(C)CC(=O)C2=C(C1)N(c1ccccc1)C(N)=C(C#N)C2c1ccsc1 (stereo not drawn) | 4.01
